# Measured values published in the supplement of paper PMC8728848.
# This is one part of the list.
# Key:
# Test in all cases: glycan array binding signal (z-score within array); higher = stronger binding
# Settings in all cases: glycan notation: IUPAC condensed, linker removed
# Gal(b1-2)Gal = target: Gal(b1-2)Gal
# Outline: (§1)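 The binding signal is a Z-score computed within each array. Data were drawn from 3228 arrays in the Consortium for Functional Glycomics database, restricted to those with a known protein sequence. Scores were averaged over arrays of the same protein sequence at different concentrations or buffers, and over linkers, and negative values can be taken as non-binding.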
# Gal(b1-3)Gal = target: Gal(b1-3)Gal
# Outline: as §1
# Gal(b1-3)Gal(b1-4)GlcNAc = target: Gal(b1-3)Gal(b1-4)GlcNAc
# Outline: as §1
# Gal(b1-3)GalNAc = target: Gal(b1-3)GalNAc
# Outline: as §1
# [1] = target: Gal(b1-3)GalNAc(a1-3)[Fuc(a1-2)]Gal(b1-4)Glc
# Outline: as §1
# [2] = target: Gal(b1-3)GalNAc(a1-3)[Fuc(a1-2)]Gal(b1-4)GlcNAc
# Outline: as §1
# Gal(b1-3)GalNAc(b1-3)Gal = target: Gal(b1-3)GalNAc(b1-3)Gal
# Outline: as §1
# [3] = target: Gal(b1-3)GalNAc(b1-3)Gal(a1-4)Gal(b1-4)Glc
# Outline: as §1
# [4] = target: Gal(b1-3)GalNAc(b1-4)Gal(b1-4)Glc
# Outline: as §1
# [5] = target: Gal(b1-3)GalNAc(b1-4)[Neu5Ac(a2-3)]Gal(b1-4)Glc
# Outline: as §1
# Gal(b1-3)GlcNAc = target: Gal(b1-3)GlcNAc
# Outline: as §1
# [6] = target: Gal(b1-3)GlcNAc(a1-3)Gal(b1-4)GlcNAc
# Outline: as §1
# [7] = target: Gal(b1-3)GlcNAc(a1-6)Gal(b1-4)GlcNAc
# Outline: as §1
# Gal(b1-3)GlcNAc(b1-2)Man = target: Gal(b1-3)GlcNAc(b1-2)Man
# Outline: as §1
# [8] = target: Gal(b1-3)GlcNAc(b1-2)Man(a1-3)[Gal(b1-3)GlcNAc(b1-2)Man(a1-6)]Man(b1-4)GlcNAc(b1-4)GlcNAc
# Outline: as §1
# [9] = target: Gal(b1-3)GlcNAc(b1-2)Man(a1-3)[Gal(b1-3)GlcNAc(b1-2)Man(a1-6)]Man(b1-4)GlcNAc(b1-4)[Fuc(a1-6)]GlcNAc
# Outline: as §1
# [10] = target: Gal(b1-3)GlcNAc(b1-2)Man(a1-3)[GlcNAc(b1-4)][Gal(b1-3)GlcNAc(b1-2)Man(a1-6)]Man(b1-4)GlcNAc(b1-4)GlcNAc
# Outline: as §1
# [11] = target: Gal(b1-3)GlcNAc(b1-2)[Gal(b1-3)GlcNAc(b1-6)]Man(a1-6)[Gal(b1-3)GlcNAc(b1-2)Man(a1-3)]Man(b1-4)GlcNAc(b1-4)GlcNAc
# Outline: as §1
# [12] = target: Gal(b1-3)GlcNAc(b1-3)Gal(b1-3)GlcNAc
# Outline: as §1
# [13] = target: Gal(b1-3)GlcNAc(b1-3)Gal(b1-4)Glc
# Outline: as §1
# [14] = target: Gal(b1-3)GlcNAc(b1-3)Gal(b1-4)GlcNAc
# Outline: as §1
# [15] = target: Gal(b1-3)GlcNAc(b1-3)Gal(b1-4)GlcNAc(b1-2)Man(a1-3)[Gal(b1-3)GlcNAc(b1-3)Gal(b1-4)GlcNAc(b1-2)Man(a1-6)]Man(b1-4)GlcNAc(b1-4)GlcNAc
# Outline: as §1
# [16] = target: Gal(b1-3)GlcNAc(b1-3)Gal(b1-4)GlcNAc(b1-2)[Gal(b1-3)GlcNAc(b1-3)Gal(b1-4)GlcNAc(b1-6)]Man(a1-6)[Gal(b1-3)GlcNAc(b1-3)Gal(b1-4)GlcNAc(b1-2)Man(a1-3)]Man(b1-4)GlcNAc(b1-4)[Fuc(a1-6)]GlcNAc
# Outline: as §1
# [17] = target: Gal(b1-3)GlcNAc(b1-3)Gal(b1-4)GlcNAc(b1-3)Gal(b1-4)GlcNAc(b1-2)[Gal(b1-3)GlcNAc(b1-3)Gal(b1-4)GlcNAc(b1-3)Gal(b1-4)GlcNAc(b1-6)]Man(a1-6)[Gal(b1-3)GlcNAc(b1-3)Gal(b1-4)GlcNAc(b1-3)Gal(b1-4)GlcNAc(b1-2)Man(a1-3)]Man(b1-4)GlcNAc(b1-4)[Fuc(a1-6)]GlcNAc
# Outline: as §1
# [18] = target: Gal(b1-3)GlcNAc(b1-3)Gal(b1-4)GlcNAc(b1-6)[Gal(b1-3)GlcNAc(b1-3)]Gal(b1-4)Glc
# Outline: as §1
# [19] = target: Gal(b1-3)GlcNAc(b1-3)Gal(b1-4)[Fuc(a1-3)]GlcNAc
# Outline: as §1
# [20] = target: Gal(b1-3)GlcNAc(b1-3)Gal(b1-4)[Fuc(a1-3)]GlcNAc(b1-6)[Gal(b1-3)GlcNAc(b1-3)]Gal(b1-4)Glc
# Outline: as §1
# [21] = target: Gal(b1-3)GlcNAc(b1-3)GalNAc
# Outline: as §1
# [22] = target: Gal(b1-3)GlcNAc(b1-6)Gal(b1-4)GlcNAc
# Outline: as §1
# [23] = target: Gal(b1-3)GlcNAc(b1-6)GalNAc
# Outline: as §1
# [24] = target: Gal(b1-3)GlcNAc(b1-6)[Gal(b1-3)]GalNAc
# Outline: as §1
# Gal(b1-3)GlcNAc6S = target: Gal(b1-3)GlcNAc6S
# Outline: as §1
# [25] = target: Gal(b1-3)[Fuc(a1-4)]GlcNAc
# Outline: as §1
# [26] = target: Gal(b1-3)[Fuc(a1-4)]GlcNAc(b1-2)Man
# Outline: as §1
# [27] = target: Gal(b1-3)[Fuc(a1-4)]GlcNAc(b1-2)Man(a1-3)[Gal(b1-3)[Fuc(a1-4)]GlcNAc(b1-2)Man(a1-6)]Man(b1-4)GlcNAc(b1-4)[Fuc(a1-6)]GlcNAc
# Outline: as §1
# [28] = target: Gal(b1-3)[Fuc(a1-4)]GlcNAc(b1-3)Gal(b1-3)[Fuc(a1-4)]GlcNAc
# Outline: as §1
# [29] = target: Gal(b1-3)[Fuc(a1-4)]GlcNAc(b1-3)Gal(b1-4)[Fuc(a1-3)]GlcNAc
# Outline: as §1
# [30] = target: Gal(b1-3)[Fuc(a1-4)]GlcNAc(b1-6)GalNAc
# Outline: as §1
# [31] = target: Gal(b1-3)[GlcNAc(b1-6)]GalNAc
# Outline: as §1
# [32] = target: Gal(b1-3)[Neu5Ac(a2-6)]GalNAc
# Outline: as §1
# [33] = target: Gal(b1-3)[Neu5Ac(a2-6)]GlcNAc(b1-4)Gal(b1-4)Glc
# Outline: as §1
# [34] = target: Gal(b1-3)[Neu5Ac(b2-6)]GalNAc
# Outline: as §1
# Gal(b1-4)Gal = target: Gal(b1-4)Gal
# Outline: as §1
# [35] = target: Gal(b1-4)GalNAc(a1-3)[Fuc(a1-2)]Gal(b1-4)GlcNAc
# Outline: as §1
# [36] = target: Gal(b1-4)GalNAc(b1-3)[Fuc(a1-2)]Gal(b1-4)GlcNAc
# Outline: as §1
binder,measurement,setting,value
PfulAvr4 2 (Pseudocercospora fuligena) (protein) HHHHHHDYKDDDDKAKPIKPFACPPKDFTTTKCQGPVDCLYANPLSCLGYIQCVCDDDACSTATPYAKSCPTGLAWVEKLKRCDGIKKSACPKKMYEGS,glycan array binding signal (z-score),Gal(b1-2)Gal,0.289
same,glycan array binding signal (z-score),Gal(b1-3)Gal,0.13
same,glycan array binding signal (z-score),Gal(b1-3)Gal(b1-4)GlcNAc,-0.441
same,glycan array binding signal (z-score),Gal(b1-3)GalNAc,-0.243
same,glycan array binding signal (z-score),[1],-0.255
same,glycan array binding signal (z-score),[2],-0.31
same,glycan array binding signal (z-score),Gal(b1-3)GalNAc(b1-3)Gal,-0.173
same,glycan array binding signal (z-score),[3],-0.108
same,glycan array binding signal (z-score),[4],-0.022
same,glycan array binding signal (z-score),[5],-0.201
same,glycan array binding signal (z-score),Gal(b1-3)GlcNAc,0.216
same,glycan array binding signal (z-score),[6],-0.237
same,glycan array binding signal (z-score),[7],-0.356
same,glycan array binding signal (z-score),Gal(b1-3)GlcNAc(b1-2)Man,-0.279
same,glycan array binding signal (z-score),[8],2.62
same,glycan array binding signal (z-score),[9],-0.024
same,glycan array binding signal (z-score),[10],8.86
same,glycan array binding signal (z-score),[11],-0.063
same,glycan array binding signal (z-score),[12],-0.133
same,glycan array binding signal (z-score),[13],0.144
same,glycan array binding signal (z-score),[14],-0.311
same,glycan array binding signal (z-score),[15],-0.361
same,glycan array binding signal (z-score),[16],-0.218
same,glycan array binding signal (z-score),[17],-0.201
same,glycan array binding signal (z-score),[18],-0.07
same,glycan array binding signal (z-score),[19],-0.315
same,glycan array binding signal (z-score),[20],-0.352
same,glycan array binding signal (z-score),[21],-0.436
same,glycan array binding signal (z-score),[22],-0.11
same,glycan array binding signal (z-score),[23],-0.399
same,glycan array binding signal (z-score),[24],-0.351
same,glycan array binding signal (z-score),Gal(b1-3)GlcNAc6S,-0.337
same,glycan array binding signal (z-score),[25],-0.218
same,glycan array binding signal (z-score),[26],2.11
same,glycan array binding signal (z-score),[27],1.31
same,glycan array binding signal (z-score),[28],-0.33
same,glycan array binding signal (z-score),[29],-0.283
same,glycan array binding signal (z-score),[30],-0.34
same,glycan array binding signal (z-score),[31],-0.28
same,glycan array binding signal (z-score),[32],-0.163
same,glycan array binding signal (z-score),[33],-0.313
same,glycan array binding signal (z-score),[34],-0.3
same,glycan array binding signal (z-score),Gal(b1-4)Gal,-0.231
same,glycan array binding signal (z-score),[35],-0.448
same,glycan array binding signal (z-score),[36],-0.44
